Assay results from article PMC12136788.
This is one part of the list.

B1: chr5:75599425:75599511:+|3pUTR|ENSG00000122008|msi1_unk|total|mutant (ssRNA)
RNA: GGGAGUUCUACAGUCCGACGAUCGAACCGCUUAAUUAAGAACUCACAGACUUUGACAAAGUGGUAACCCGACUUUUAAUUACCCGAUUCUUCAAAUCCGGCUUAAUGCCUGCCCGCAUGCCAAUCCAAUCCCAUGACUGAUGUCAACAGAGGAUUGAGCAUCA
B2: ENSG00000138760:stop:overlap|stop_codon|ENSG00000138760|stop_codon|NA|stop_codon (ssRNA)
RNA: GGGAGUUCUACAGUCCGACGAUCACCAAUCUGUUGGAGACCCUAAAAUUGACUUAAUUAGAACAUUAAAUAUUCCUGUAUUGUAGGAGAGAGUGGAUGGAGGUGCUUUGGAGGGGAUGCUGCUGUCUUAAUAUACCUCUGCUCCAACAGAGGAUUGAGCAUCA
B3: chr4:102887774:102887875:+|3pUTR|ENSG00000145354|msi1|total|mutant (ssRNA)
RNA: GGGAGUUCUACAGUCCGACGAUCUUGGUUUUGAUAAUCUGAAGUGUUUUUUUCUCGUUUUGGCCUUCCAAACUGCAUUUGGUCCGGUGAAUUAAGAAAAAUAUUGCCAUCAAGAAUUACUUGUGUUUUCACAGAGACCGACUCCAACAGAGGAUUGAGCAUCA
B4: chr2:24000049:24000165:+|3pUTR|ENSG00000173960|unk|total|mutant (ssRNA)
RNA: GGGAGUUCUACAGUCCGACGAUCGCCGCAUAUGACUGGAAACUAUAUUCAGUGCACUUUCUCCAAAAGACUACCCAGAAAAACCGACUUAUUUUCAAAUACCAGUUAUCAAGAUAUAUUAAACCGCUGUAUUGUUCCGAAUCUCAACAGAGGAUUGAGCAUCA
B5: chr15:50499066:50499164:+|CDS_3pUTR|ENSG00000138592|msi1_unk|FALSE|overlapping (ssRNA)
RNA: GGGAGUUCUACAGUCCGACGAUCUACUUCAUUGGGACCACGAGUAACUGAUGUAGCCACAUAAGGAGACAUAGGUUAUAAACUAGUUAUCUUUUAAAAGGCUCAGCAACACAACUCUUGAAAUGCUUAUCAGGAUAAUGGUAGCAACAGAGGAUUGAGCAUCA
B6: chrX:102369585:102369736:-|CDS|ENSG00000269437|control|control|control (ssRNA)
RNA: GGGAGUUCUACAGUCCGACGAUCUGCGAAAGAAGAAUGAAAUGGCAUAGUGAAGACGAAAUCCGUAUUACCACGUGGAGAAAUAGAAAACCUCCGGAGAGAAAAAUGAGUCAGAACACACAGGAUGGAUACACAAGGAACUGGCAACAGAGGAUUGAGCAUCA
B7: chr7:41961162:41961264:-|3pUTR|ENSG00000106571|unk|FALSE|bound_elsewhere (ssRNA)
RNA: GGGAGUUCUACAGUCCGACGAUCCCCUUGUGUAUCCUGCAGACAUGUAAAAUAAAAUACAAGUUCAUUUUUUUCACCUUUUUUAGAUUUUUUUAAAAAAUAAAAUGUGUAAUCCUUUUUUUAAAAGAAACACAUGUAAAUACACAACAGAGGAUUGAGCAUCA
B8: chr3:64018827:64018930:-|CDS|ENSG00000163636|unk|total|mutant (ssRNA)
RNA: GGGAGUUCUACAGUCCGACGAUCUGAACUCAUGGAUUAUAAAACAUUUGUGACUUAUACUGUCUAUGUCAGUAUGAUUGCCUCCGAAAGACCAGAUCUCAGGGAAAAGGUAAUGACCAAACUUUAAUACUCAAAUUUAAAGACCAACAGAGGAUUGAGCAUCA
B9: chr5:154419581:154419682:+|3pUTR|ENSG00000164574|msi1|total|mutant (ssRNA)
RNA: GGGAGUUCUACAGUCCGACGAUCAAAGGGAUGGGUGUGUCCUCUGAGCACUCUGGCAUUUGUCAUUGCUGAGCCCAUAUCAGCCGGUCCUGGGACUUGACAAAGUAUGUGGGAGGGGAAGGAAGGACAGAACUUGACUGGCUCCAACAGAGGAUUGAGCAUCA
B10: ENSG00000083457:stop:overlap|stop_codon|ENSG00000083457|stop_codon|NA|stop_codon (ssRNA)
RNA: GGGAGUUCUACAGUCCGACGAUCACUUGGAGAGCAUCAGGAAGGCCCAGCUGAAAUCAGAGAAUCUGCUCGAAGAAGAGAAUUAGGACCUGCUAUCCACUGGGAGAGGCUAUCAGCCAGUCCUGGGACUUGGAGACCCAGCAUCAACAGAGGAUUGAGCAUCA
B11: chr7:77749912:77750028:+|CDS|ENSG00000187257|unk|FALSE|unique (ssRNA)
RNA: GGGAGUUCUACAGUCCGACGAUCUGCAGCUUUCUACGUGAUGGGUAUUGUUCAUGGGGCAGCUACUUAUUUACCUGACUUUUUAGACUAUUUUUCAUUUAAUUUUCCCAAUUCACCAGUGAAAAUGGAGAUAUUGGGAAAGAACAACAGAGGAUUGAGCAUCA
B12: ENSG00000070961:be:win_2201|CDS|ENSG00000070961|bound_else_gene|NA|bound_elsewhere_windowed (ssRNA)
RNA: GGGAGUUCUACAGUCCGACGAUCUAGAAGGUAAAGAUUUUAACAGAAGAAUACGAAAUGAAAAAGGAGAGAUUGAGCAAGAGAGGAUAGACAAGAUUUGGCCAAAACUUCGAGUACUUGCAAGAUCAUCUCCUACUGAUAAGCCAACAGAGGAUUGAGCAUCA
B13: chr5:116443554:116446612:-|three_prime_utr|ENSG00000092421|control|control|control (ssRNA)
RNA: GGGAGUUCUACAGUCCGACGAUCCCGCCAGUGUUACAGCUUUCUGUUGCAGCAGAUAAAUGCCAUGUUGGGCAACUAUGUCAUAGAUUUCUGCUCCUCCUCUCUUUUAAUGAAAUAACGUGACCGUUAACGCAAGUAACUCUUCAACAGAGGAUUGAGCAUCA
B14: chr1:42278343:42278454:-|CDS|ENSG00000198815|unk|FALSE|bound_elsewhere (ssRNA)
RNA: GGGAGUUCUACAGUCCGACGAUCAAAAAGAAAAUGACUUUAAGUGAAAUUUAUCAGUGGAUUUGUGAUAACUUCCCAUAUUAUAGAGAGGCUGGCAGUGGUUGGAAGGUAAGGAUUUUAUUUAAAUUAUUACUUUUAUGAAGUCAACAGAGGAUUGAGCAUCA
B15: chr1:94983078:94983306:-|CDS|ENSG00000172339|control|control|control (ssRNA)
RNA: GGGAGUUCUACAGUCCGACGAUCCCUUGGGAUACUAGGAAUAAAGAAAGUGAUCAUUGUCUACGUUGAAAGCAUCUGCCGUGUAGAAACGUUAUCCAUGUCCGGAAAGAUUCUGUUUCAUCUCUCAGAUUACUUCAUUGUUCACAACAGAGGAUUGAGCAUCA
B16: chr11:62152232:62152344:+|3pUTR|ENSG00000149503|unk|total|mutant (ssRNA)
RNA: GGGAGUUCUACAGUCCGACGAUCUGCUCUGUAAACCGUUGUUUUAAUUCCGCUGAAUGUCCGCAUUUCCGUCUUUGGCAUUUCCGCGUUUGGGAGGCCGAUUAAUAAAGUAUAUUCCUUCAAGCCUGCUGUUGAUACCAUGAACAACAGAGGAUUGAGCAUCA
B17: chr7:73478007:73478118:-|CDS|ENSG00000009954|unk|total|mutant (ssRNA)
RNA: GGGAGUUCUACAGUCCGACGAUCAAAGGCACGCAGAAGAUGACACGAGCCCCACGGAAUUCUGGGGGUACACCCCGGACCUCCCGUAAACCUCAUAAACAUCUGCCUCCUGCAGCCCUACACCUCAUUGCAUACUACAAAGAACAACAGAGGAUUGAGCAUCA
B18: ENSG00000133640:stop:overlap|stop_codon|ENSG00000133640|stop_codon|NA|stop_codon (ssRNA)
RNA: GGGAGUUCUACAGUCCGACGAUCAGGCACACAGACACUCAGCAGGAUCUUCAAGUAAGUUGUGGUUUCCUUCAAAAUUAAUUUAGAAAUCACAAACGAAUUGAUGGAACCUAAUGCCAACAAGCAUUCUUUUUCAGAUAGGGGCAACAGAGGAUUGAGCAUCA
B19: chr7:18026828:18027782:-|CDS|ENSG00000229937|control|control|control (ssRNA)
RNA: GGGAGUUCUACAGUCCGACGAUCUGGAAUCUUUUCUGGCCCAGCCAUUUCUCGCAUCAACACUGCAUGCUUUGAAGCAGUGGUAGUCACCAAUACCAUACCUCAAGAUGAGAAGAUGAAGCAUUGCUCCAAAAUACGAGUAAUCAACAGAGGAUUGAGCAUCA
B20: chr12:130875966:130876013:+|3pUTR|ENSG00000132341|msi1_unk|FALSE|overlapping (ssRNA)
RNA: GGGAGUUCUACAGUCCGACGAUCGAUGAGGAUGAUGACCUGUGAGAAUGAAGCUGGAGCCCAGCGUCAGAAGUCUAGUUUUAUAGGCAGCUGUCCUGUGAUGUCAGCGGUGCAGCGUGUGUGCCACCUCAUUAUUAUCUAGCUCAACAGAGGAUUGAGCAUCA
B21: chr12:6655637:6655878:-|three_prime_utr|ENSG00000111653|control|control|control (ssRNA)
RNA: GGGAGUUCUACAGUCCGACGAUCUCACUUGGUUUCUUCAAAGAUGUCUGUUGGAGCUAUUCCCAUACCCACUGAAGGAUCUGUAGUCUUGUCUUCAUUCUAUGUAGCCAUGUUCAAGGAUGUAACAGACUGGUUUUGAGAUACCAACAGAGGAUUGAGCAUCA
B22: chr18:21869459:21869560:+|3pUTR|ENSG00000101752|msi1|total|mutant (ssRNA)
RNA: GGGAGUUCUACAGUCCGACGAUCUAAAAGAUGGUCUUCCGUGCACGUGUAUCAUUAUAUACACGUUUUAAAGUCAUAUUGCUCCGCUUGUUAAUAAUGAUUCUGCAUGUGUGCUGGGUUUGGGUAAUUCUUUAAAGGAAGUUUCAACAGAGGAUUGAGCAUCA

The binders below were run against MSI1 full-length (mouse, UniProt Q61474 1-362) (assay: nsRBNS (natural sequence RNA bind-n-seq); RBNS binding buffer (assumed for nsRBNS): 25 mM Tris pH 7.5, 150 mM KCl, 3 mM MgCl2, 0.01% Triton X-100, 500 ug/ml BSA, 20 U/ml SUPERase-In, 4 C; UNK is unkempt and MSI1 is Musashi-1; names of the RNAs are library labels; protein concentration not given here; high values mean tight binding).
Sequence of UniProt Q61474 (Q61474 whole entry): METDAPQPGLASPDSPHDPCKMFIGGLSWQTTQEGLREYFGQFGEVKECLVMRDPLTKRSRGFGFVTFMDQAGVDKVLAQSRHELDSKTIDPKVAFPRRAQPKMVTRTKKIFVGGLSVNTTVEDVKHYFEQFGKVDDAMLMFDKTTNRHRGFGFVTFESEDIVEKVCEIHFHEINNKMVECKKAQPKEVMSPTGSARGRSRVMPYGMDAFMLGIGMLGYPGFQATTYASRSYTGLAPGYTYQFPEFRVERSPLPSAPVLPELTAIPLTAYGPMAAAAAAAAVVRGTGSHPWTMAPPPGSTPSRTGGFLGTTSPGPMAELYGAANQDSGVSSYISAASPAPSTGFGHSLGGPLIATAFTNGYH

Row | Binder | binding signal
1 | B1 | 0.4 enrichment R
2 | B2 | 0.695 enrichment R
3 | B3 | 0.261 enrichment R
4 | B4 | 1.54 enrichment R
5 | B5 | 0.769 enrichment R
6 | B6 | 0.89 enrichment R
7 | B7 | 1.25 enrichment R
8 | B8 | 0.324 enrichment R
9 | B9 | 0.421 enrichment R
10 | B10 | 0.592 enrichment R
11 | B11 | 0.776 enrichment R
12 | B12 | 1.49 enrichment R
13 | B13 | 0.417 enrichment R
14 | B14 | 3.1 enrichment R
15 | B15 | 0.232 enrichment R
16 | B16 | 0.406 enrichment R
17 | B17 | 0.327 enrichment R
18 | B18 | 0.443 enrichment R
19 | B19 | 0.367 enrichment R
20 | B20 | 0.631 enrichment R
21 | B21 | 0.297 enrichment R
22 | B22 | 0.32 enrichment R
